In PubChem BioAssay AID463173 (ICCB-Longwood Screening Facility, Harvard Medical School, 2010) one finds survival data, which are given here for 58 compounds.

Hit rate of the full screen: of about 52,000 compounds, about 4,300 (8.3%) were called active. No stated cut-off is given here; in the data, active means survival mostly below about 52% (no sharp cut-off); inactive means mostly above about 56%. Some of the results follow.

This assay deals with DeltatarO mutant. Put plainly: S. aureus survival, RN4220 and DeltatarO strains – OD600, teichoic acid synthesis inhibitors, primary screen (AID 463173). The following applies: S. aureus RN4220 wild type/DeltatarO growth, OD600, 18 h, stronger effect = lower value, screened at 18.75 µg/mL (by protocol).
Consider `CCCCOc1ccc(C(=O)Nc2ccc3oc(-c4cccnc4)nc3c2)cc1`, for which the survival was inactive: 69%.
Next, `COc1ccc(OCC(=O)N2CCC(c3nc4ccccc4s3)CC2)cc1`: inactive: 68%.
In the case of `Cc1ccc(-n2ncc(C(=O)NCc3cccs3)c2C2CCN(C(=O)OC(C)(C)C)CC2)cc1`, the survival is inactive: 99%.
The result for `COc1ccccc1NC(=O)C(C)Sc1nnc2ccc3ccccc3n12` (stereo not drawn) reads inactive: 79%.
As to `Cc1ccc(CNC(=O)CN2C(=O)CCn3nc(-c4ccccc4)cc32)cc1`, the survival was inactive: 72%.
For the compound `CC1(C(=O)O)CCC(C(=O)N2CCCCC2)C1(C)C` (stereo not drawn), the survival was inactive: 93%.
The result for `Cc1oc2ccc(O)c(CN3CCCC3)c2c1C(=O)Nc1ccccc1` reads inactive: 74%; that for `Cc1cccc(N2CCN(C(=O)C3CCCN(S(=O)(=O)c4ccc5c(c4)oc(=O)n5C)C3)CC2)c1C` (stereo not drawn), inactive: 84%.
The result for `Cc1ccc(Cl)cc1NS(=O)(=O)c1ccc2c(c1)NC(=O)CCS2` reads inactive: 86%.
Next, `COCCOC(=O)C1=C(C)NC(=O)NC1c1cn(-c2ccccc2)nc1-c1ccccc1` (stereo not drawn): inactive: 57%; `CC1Cc2cc(S(=O)(=O)CCC(=O)NCc3ccc(Cl)cc3)ccc2N1C(=O)C1CC1` (stereo not drawn): inactive: 94%.
`Cc1ccc(CNCC(C)O)s1` (stereo not drawn): the survival is inactive: 73%.
For `O=C(CS(=O)(=O)Cc1ccccc1)Nc1ccccn1`, the survival was inactive: 105%.
Next, `COc1ccc(OC)c(CCNC(=O)CCc2cn(Cc3cc(C)ccc3C)c3ccccc23)c1`: inactive: 71%.
The result for `O=C1Nc2ccccc2N(O)N1c1ccccc1Cl` reads inactive: 90%; that for `CNc1nc(OCC#N)nc(N2CCCCC2)n1`, inactive: 110%.
In the case of `COc1ccc(NC(=O)c2sc3nc(-c4cc5ccc(OC)cc5oc4=O)[nH]c(=O)c3c2C)cc1`, the survival is active: 46%.
The result for `CCCCN(CC)CCNC(=O)CCn1cnc2onc(-c3ccc(F)cc3)c2c1=O` reads inactive: 81%; that for `Cc1cccc(-n2cc(-c3ccccc3)c3c(N4CCC(C)CC4)ncnc32)c1`, inactive: 90%; that for `COc1cc(NC(=O)NCC2CCN(Cc3ccccc3Cl)CC2)cc(OC)c1OC`, inactive: 89%.
The result for `COc1ccc(-c2cn3nc(N4CCCC(C(=O)Nc5cc(C)ccc5C)C4)sc3n2)cc1` (stereo not drawn) reads inactive: 76%.
Next, `CCN1C(=O)C(O)(CC(=O)c2ccc(OC)c(OC)c2)c2ccccc21` (stereo not drawn): inactive: 81%; `Fc1ccc(-n2ncc3c(NCCCn4ccnc4)ncnc32)cc1`: inactive: 89%; `O=C(N1CCOCC1)C1(c2ccc(Cl)cc2)CCCC1`: inactive: 86%.
As to `COc1cccc(C2NC(=O)c3n[nH]c(-c4cccs4)c32)c1` (stereo not drawn), the survival was inactive: 71%.
For `COc1ccc(Br)cc1CNC(=O)c1cnc2sc(N3CCCC3)nn2c1=O`, the survival is inactive: 98%.
The result for `COc1ccc(C(=O)N(Cc2cc(OC)c(OC)c(OC)c2)c2ccccn2)cc1` reads inactive: 76%; that for `O=C(Cn1c(=O)nc(-c2ccccc2)c2ccccc21)NCCc1ccc(Cl)cc1`, inactive: 70%; that for `CN1CCN(C(CNC(=O)c2ccccc2F)c2ccc3c(c2)OCO3)CC1` (stereo not drawn), inactive: 87%.
As for `Cc1ccc2sc(N3CCN(C(=O)CCS(=O)(=O)c4ccc(Cl)cc4)CC3)nc2c1C`, the survival was inactive: 64%.
As for `O=C(NCCc1ccc(F)cc1)C(=O)NCC(c1cccs1)S(=O)(=O)c1ccc(F)cc1` (stereo not drawn), the survival was inactive: 71%.
Next, `Cc1ccc(-c2cn3nc(N4CCCC(C(=O)Nc5ccc(F)cc5)C4)sc3n2)cc1` (stereo not drawn): inactive: 75%; `Cc1ccc(N(CC(=O)N2CCN(c3ccc(Cl)cc3)CC2)S(=O)(=O)c2c(C)nn(C)c2C)cc1`: inactive: 82%; `CCC(Sc1nc2ncccc2[nH]1)C(=O)Nc1cccc(OC)c1` (stereo not drawn): inactive: 67%.
Next, `CCCN(CCC)C(=O)Cn1c(=O)n(-c2cccc(OC)c2)c(=O)c2c(C)c(C(=O)N(C)C)sc21`: inactive: 75%; `CCOC(=O)/C(C#N)=C\c1cccn1C`: inactive: 65%.
The result for `CCC1CCCCN1CCCNC(=O)c1[nH]c2ccccc2c1Sc1ccc(Cl)cc1` (stereo not drawn) reads active: -1%; that for `CCOc1ccc(C(c2c(O)cc(C)n(CCOC)c2=O)N2CCN(c3ccccc3)CC2)cc1` (stereo not drawn), inactive: 93%; that for `Cc1c2cnn(CC(=O)N3CCCCC3)c(=O)c2c(C)n1Cc1ccc(F)cc1`, inactive: 67%.
Consider `COc1cccc(CNC(=O)C(CC(C)C)NS(=O)(=O)c2ccc3c(c2)oc(=O)n3C)c1` (stereo not drawn), for which the survival is inactive: 127%.
As for `Cc1ccc(Cl)cc1NS(=O)(=O)c1ccc2oc(=O)c3ncn(C)c3c2c1`, the survival was inactive: 124%.
The result for `Cc1ccc2c(c1)C(=O)OC(C(=O)Nc1ncc(Cc3ccc(C(C)C)cc3)s1)C2` (stereo not drawn) reads inactive: 83%; that for `CCN(C(=O)CCS(=O)(=O)c1cc2[nH]c(=O)c(=O)[nH]c2cc1C)c1ccccc1`, inactive: 92%; that for `COc1ccc(-c2noc(N3CCC(C(=O)Nc4ccc(F)cc4Cl)CC3)n2)cc1`, inactive: 71%.
The result for `COc1ccccc1OCc1nnc(SCCN2CCOCC2)o1` reads inactive: 59%; that for `COc1ccc(C)cc1NC(=O)c1ccc2c(=O)n3c(nc2c1)CCCCC3`, inactive: 65%.
`Cc1cccc(-c2nc3c4ccccc4nc(N4CCN(c5ccccc5F)CC4)n3n2)c1`: the survival was inactive: 65%.
Next, `Cc1ccc(NC(=O)C(Cc2ccccc2)n2cccc2)cc1` (stereo not drawn): inactive: 76%; `O=C(O)C1CCCN1C(=O)c1cncc(Br)c1` (stereo not drawn): inactive: 64%; `COc1ccccc1OCCCSc1nc(-c2ccc(C(C)(C)C)cc2)nc2cc(=O)[nH]n12`: inactive: 81%.
Next, `COCCCn1c(=O)c2sccc2n2c(CCCC(=O)Nc3cc(C)cc(C)c3)nnc12`: inactive: 64%; `COc1ccc(CNC(=O)Cn2ncc3c4ccccc4n(Cc4cccc(Cl)c4)c3c2=O)cc1`: inactive: 86%.
Next, `COc1ccc(OC)c(NCc2cccn2-c2nnc(N3CCCCC3)s2)c1`: inactive: 93%.
For `CN1CCc2c(sc3c2C(=O)NC(c2ccc(OC(=O)c4ccccc4)cc2)N3)C1` (stereo not drawn), the survival was inactive: 43%.
The result for `Cc1ccc(C)c(S(=O)(=O)c2cn(C)c3cc(N4CCCCC4C)c(F)cc3c2=O)c1` (stereo not drawn) reads inactive: 86%.
The result for `Cc1nc2nncn2c(Nc2ccccc2)c1C` reads inactive: 78%; that for `COc1ccc(OC)c(NC(=O)c2c(N3CCCC3=O)c3cc(OC)ccc3n2C)c1`, inactive: 78%.
The result for `CCOC(=O)c1c(-c2ccccc2)csc1NC(=O)c1cc(=O)c2ccc(C)cc2o1` reads inactive: 75%.
